Data: PubChem BioAssay (NCATS)
Several values for one entry are separate records, joined by “and”; a condition that tells them apart may be missing. Equal values may be shown once. The inconclusive results got no clear call from the source; some entries with a clear call stand among them for comparison. For some of these results: A potency beside an inconclusive call is a rough fit, not a confirmed value. For some of these results: A note “side channel” means that the fit belongs to a control or component signal, not to the main read-out. Activity calls are given as the source filed them. Unless noted, calls follow the shape of the dose curve; as a rule, active = well fitted curve in the direction sought with a large enough effect; inconclusive = small, poorly fitted or top-dose-only effect, or another doubt; inactive = no such curve, though single readings can be large; an effect the other way counts as inactive or inconclusive.

Columns and labels:
[1] = MultiTox-Fluor Cytotoxicity Assay - LYMP1-002 - Dead Cells (AID 960); settings: LYMP1-002 lymphoblastoid cells, dead-cell protease fluorescence; cytotoxicity (dead cells): at 46.1 µM (top of the series); also: potency is read from the fitted curve at half-maximal effect; nearly all actives have a fitted effect of over 60% in size
Outline: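 Acute cytotoxicity in a human lymphoblastoid line is scored as rising dead-cell protease signal after 16 hr exposure at 37 C, measured fluorometrically (485/520).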

[2] = molecular target: Estrogen receptor (Homo sapiens) (UniProt P03372); assay: qHTS assay for small molecule antagonists of estrogen receptor alpha signaling (AID 588513; active = well fitted curve in the direction sought with a large enough effect in the signal ratio, with a control signal flat, not every such curve was filed as active; inconclusive = small, poorly fitted or top-dose-only effect, or effect the other way, or a change in a side signal; inactive = no such curve, though single readings can be large or run the other way; the % refers to the signal ratio; also: potency is read from the fitted curve at half-maximal effect; as to activity, negative = inhibition: % is scaled to controls: 0 for no effect and ±100 for the full control effect); settings: ER-alpha-UAS-bla HEK293, beta-lactamase ratio, antagonist mode; activity, negative = inhibition: at 76.9 µM (top of the series)
Outline: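 Cells were plated at 5000/well and incubated 4 h at 37 C. Compounds were added as 1:2 dilution series, duplicates. 17-beta-estradiol (0.5nM final) was added for 18 h before CCF4 detection.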

[3] = molecular target: Glucocorticoid receptor (Homo sapiens) (UniProt P04150); assay: qHTS assay for small molecule antagonists of glucocorticoid receptor signaling (AID 588533; active = well fitted inhibition curve with a large enough effect in the signal ratio, with a control signal flat, not every such curve was filed as active; inconclusive = small, poorly fitted or top-dose-only effect, or effect the other way, or a change in a side signal; the % refers to the signal ratio;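 also: cells stimulated with 2 nM dexamethasone as agonist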; also: potency is read from the fitted curve at half-maximal effect; as to activity change, negative = inhibition: % is scaled to controls: 0 for no effect and ±100 for the full control effect); settings: HeLa MMTV-bla, GRE beta-lactamase ratio, antagonist mode, 18 h; activity change, negative = inhibition: at 76.8 µM (top of the series)
[4] = molecular target: Peroxisome proliferator-activated receptor gamma (Homo sapiens) (UniProt P37231); assay: qHTS assay for small molecule agonists of peroxisome proliferator-activated receptor gamma signaling (AID 588536; active = well fitted curve in the direction sought with a large enough effect in the signal ratio, with a control signal flat, not every such curve was filed as active; inconclusive = small, poorly fitted or top-dose-only effect, or effect the other way, or a change in a side signal; inactive = no such curve, though single readings can be large or run the other way; the % refers to the signal ratio; also: potency is read from the fitted curve at half-maximal effect;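 as to activation: 0% = DMSO basal wells and 100% = rosiglitazone at 2 µM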); settings: HEK293 PPARg-UAS-bla, beta-lactamase ratio, 16 h; activation: at 76.7 µM (top of the series), percent of rosiglitazone response, DMSO as zero
Outline: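 GeneBLAzer PPAR-gamma-UAS-bla HEK293 cells in 1% charcoal/dextran-treated FBS medium were treated 16 h at 37 C with compounds. Beta-lactamase activity was read by CCF4 ratio (460/530 nm). Response was normalized to 2 uM rosiglitazone (100%) and DMSO, then Hill-fitted for EC50 and efficacy.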

[5] = molecular target: Thyroid hormone receptor beta (Homo sapiens) (UniProt P10828); assay: qHTS assay for small molecule agonists of thyroid hormone receptor beta signaling (AID 588545; calls by dose curve; also: potency is read from the fitted curve at half-maximal effect); settings: TR-UAS-bla GripTite HEK 293, beta-lactamase ratio, agonist mode, 18 h; activation: at 76.7 µM, percent of T3 response, DMSO as zero
Outline: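 In this cell-based screen, titrated compounds act on HEK 293 cells held in medium with 2% charcoal/dextran FBS, NEAA and pyruvate for 18 hrs at 37 C. Responses are expressed relative to T3 (10 nM) as 100% and basal DMSO as 0%.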

[6] = qHTS assay for small molecule activators of the p53 signaling pathway (AID 651743; active = well fitted activation curve with a large enough effect in the signal ratio, not every such curve was filed as active; inconclusive = small, poorly fitted or top-dose-only effect, or a change in a side signal; the % refers to the signal ratio; also: potency is read from the fitted curve at half-maximal effect); settings: HCT-116 p53RE-bla, beta-lactamase FRET ratio, 16 h; activation: stronger effect = higher value
Outline: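 Screen for p53 pathway agonists uses stably transfected p53RE-bla HCT-116 cells, 4,000 per well, treated 16 h at 37 C with compounds in DMSO.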

[7] = qHTS assay to identify small molecules that stimulate interleukin-8 (IL-8) secretion (AID 651758; active = well fitted activation curve with a large enough effect in the signal ratio; inconclusive = small, poorly fitted or top-dose-only effect, or effect the other way, or a change in a side signal; the % refers to the signal ratio; also: potency is read from the fitted curve at half-maximal effect); settings: HTRF ratio (665/615); activation: at 92.2 µM (top of the series)
Outline: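 Secreted IL-8 measured by TR-FRET sandwich (cryptate and XL665 antibodies) from THP-1 cells exposed to compound overnight (16 hrs, 37 C).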

[8] = molecular target: Nuclear receptor ROR-gamma (Homo sapiens) (UniProt P51449); assay: qHTS assay for small molecule antagonists of the retinoid-related orphan receptor gamma (ROR-gamma) signaling pathway (AID 651802); also: potency is read from the fitted curve at half-maximal effect; nearly all actives have a fitted effect of over 60% in size
Outline: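 Antagonism is scored as a fall in luminescence from a RORE-luciferase reporter in CHO cells expressing ROR under a TET-inducible promoter, measured 16hr after doxycycline induction in the presence of compound.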

[9] = molecular target: Retinoic acid receptor RXR-alpha (Homo sapiens) (UniProt P19793); assay: qHTS assay for small molecule antagonists of retinoid X receptor alpha signaling (AID 588546; active = well fitted inhibition curve with a large enough effect in the signal ratio, with a control signal flat, not every such curve was filed as active; inconclusive = small, poorly fitted or top-dose-only effect, or effect the other way, or a change in a side signal; inactive = no such curve, though single readings can be large or run the other way; the % refers to the signal ratio;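 also: cells stimulated with 9-cis-retinoic acid as agonist; % is scaled to controls: 0 for no effect and ±100 for the full control effect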); settings: HEK293T RXRa-UAS-bla, beta-lactamase ratio, antagonist mode
Outline: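 Beta-lactamase reporter inhibition, read as CCF4 fluorescence ratio (ex 405, em 460/530 nm) after 2 h at RT. HEK293T UAS-bla cells, 2500/well, were stimulated with 9-cis-RA at 500 or 100 nM final alongside test compound for 18 h at 37 C.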

[10] = molecular target: Luciferin 4-monooxygenase (Photinus pyralis) (UniProt P08659); assay: Biochemical firefly luciferase enzyme assay for NPC (AID 624030); also: potency is read from the fitted curve at half-maximal effect; nearly all actives have a fitted effect of over 70% in size
Outline: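 Direct inhibition of firefly luciferase enzyme (10 nM final, 50 mM Tris Acetate) assessed by luminescence within 5 minutes. Percent activity scaled between DMSO and PTC124 positive control, with concentration-effect curves classified by fit quality and response.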

[11] = molecular target: DNA polymerase eta (Homo sapiens) (UniProt Q9Y253); assay: qHTS for Inhibitors of Polymerase Eta: Confirmatory Assay for Cherry-picked Compounds (AID 720502); settings: Pol eta primer extension, TAMRA/BHQ fluorescence, 10 min; also: potency is read from the fitted curve at half-maximal effect
Outline: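 The reaction starts with 50 nM final labeled DNA substrate added to Pol eta (10 nM) that had sat with compound for 15 min. TAMRA emission at 598 nm is read at 0 and 10 min.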

[12] = S16 Schwann cell PMP22 intronic element beta-lactamase assay (AID 624044; calls by dose curve; also: potency is read from the fitted curve at half-maximal effect; nearly all actives have a fitted effect of over 15% in size); settings: S16 rat Schwann cells, PMP22 element beta-lactamase FRET, 24 h; ratio activity, negative = inhibition: at 38.3 µM (top of the series) unless noted
Outline: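 Rat S16 Schwann cells with beta-Lac driven by a PMP22 intronic element, compound-treated 24 h at 37 °C. LiveBLAzer FRET B/G read: 460 nm normalized to potassium clavulanate vs DMSO; 535 nm FRET as viability; concentration-effect curves classified.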

[13] = Cell Proliferation Assay against the TMD8 Cell Line (Caspase readout at 8 hrs) (AID 651713); settings: TMD8 lymphoma cells, caspase activation luminescence; also: potency is read from the fitted curve at half-maximal effect
Outline: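 Percent activity derived from Caspase-Glo signal, DMSO set to 0% and bortezomib (9.2 uM final) to 100%. TMD8 cells were exposed to compound for 8 h in RPMI with 5% FBS.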

[14] = qHTS Assay for Identifying Gametocytocidal Compounds (AID 743244); also: potency is read from the fitted curve at half-maximal effect; settings: P. falciparum 3D7 stage III-V gametocytes, alamarBlue, 72 h; max response: stronger effect = lower value
Outline: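 Using 20,000 stage III–V 3D7 gametocytes per well, compounds were incubated 72 h under 37 °C/5% CO2. Viability was then assessed by 24 h alamarBlue reduction, measured fluorometrically at 525/598 nm.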

[15] = Primary qHTS for small molecule stabilizers of the endoplasmic reticulum resident proteome: Secreted ER Calcium Modulated Protein (SERCaMP) assay (AID 1508630); settings: SH-SY5Y GLuc-SERCaMP (Gaussia luciferase released on ER calcium loss) secretion, thapsigargin, luminescence; activity change, negative = inhibition: at 38.4 µM (top of the series); also: potency is read from the fitted curve at half-maximal effect
Outline: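 GLuc-SERCaMP-expressing SH-SY5Y cells, pretreated 16 h with compound, are challenged with thapsigargin to empty ER calcium stores; after 4 h, coelenterazine is added directly to the medium and luminescence is imaged.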

[16] = qHTS profiling for inhibitors of Plasmodium falciparum proliferation (AID 504749); also: nearly all actives have a fitted effect of over 60% in size; also: potency is read from the fitted curve at half-maximal effect;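 as to activity, negative = inhibition: 0% = DMSO vehicle and full inhibition = artemisinin control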; settings: P. falciparum in erythrocytes, SYBR Green DNA, 72 h; Potency: parasite line B unless noted
Outline: (§1)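 Three-day growth assay of blood-stage parasites in erythrocytes (0.3% parasitemia, 2.5% hematocrit) at 37 C, 5% CO2, quantified by SYBR Green DNA staining after overnight detergent lysis.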

CP191 = assay: as above; settings: P. falciparum in erythrocytes, SYBR Green DNA, 72 h
Outline: as §1

CP194 = assay: as above; settings: P. falciparum in erythrocytes, SYBR Green DNA, 72 h
Outline: as §1

CP237 = assay: as above; settings: P. falciparum in erythrocytes, SYBR Green DNA, 72 h
Outline: as §1

CP335 = assay: as above; settings: P. falciparum in erythrocytes, SYBR Green DNA, 72 h
Outline: as §1

DFO2036 = assay: as above; settings: P. falciparum in erythrocytes, SYBR Green DNA, 72 h
Outline: as §1

P93_24 = assay: as above; settings: P. falciparum in erythrocytes, SYBR Green DNA, 72 h
Outline: as §1

TAB113 = assay: as above; settings: P. falciparum in erythrocytes, SYBR Green DNA, 72 h; activity, negative = inhibition: at 28.7 µM (top of the series)
Outline: as §1

W2 = assay: as above; settings: P. falciparum in erythrocytes, SYBR Green DNA, 72 h
Outline: as §1
Tags tell the direction and shape of the fitted curve or compound fluorescence and quenching.

Sequence of UniProt P03372 (P03372 whole entry, looked up): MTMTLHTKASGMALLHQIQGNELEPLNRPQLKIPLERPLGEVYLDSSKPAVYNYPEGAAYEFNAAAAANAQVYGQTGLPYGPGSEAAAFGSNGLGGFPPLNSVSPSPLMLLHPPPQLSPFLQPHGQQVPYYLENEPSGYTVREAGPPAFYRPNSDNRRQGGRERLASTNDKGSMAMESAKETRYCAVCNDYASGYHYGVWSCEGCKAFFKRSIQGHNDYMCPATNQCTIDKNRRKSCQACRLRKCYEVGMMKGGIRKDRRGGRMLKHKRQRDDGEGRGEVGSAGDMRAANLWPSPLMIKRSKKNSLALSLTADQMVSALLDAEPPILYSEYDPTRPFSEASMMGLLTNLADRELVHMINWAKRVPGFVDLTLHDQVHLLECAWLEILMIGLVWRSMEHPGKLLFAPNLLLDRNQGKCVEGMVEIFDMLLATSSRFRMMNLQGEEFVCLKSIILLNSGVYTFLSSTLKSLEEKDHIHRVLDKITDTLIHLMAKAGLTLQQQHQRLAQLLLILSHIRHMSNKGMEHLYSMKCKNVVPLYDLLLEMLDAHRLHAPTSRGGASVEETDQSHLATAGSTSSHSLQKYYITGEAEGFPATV
Sequence of UniProt Q9Y253 (Q9Y253 whole entry, looked up): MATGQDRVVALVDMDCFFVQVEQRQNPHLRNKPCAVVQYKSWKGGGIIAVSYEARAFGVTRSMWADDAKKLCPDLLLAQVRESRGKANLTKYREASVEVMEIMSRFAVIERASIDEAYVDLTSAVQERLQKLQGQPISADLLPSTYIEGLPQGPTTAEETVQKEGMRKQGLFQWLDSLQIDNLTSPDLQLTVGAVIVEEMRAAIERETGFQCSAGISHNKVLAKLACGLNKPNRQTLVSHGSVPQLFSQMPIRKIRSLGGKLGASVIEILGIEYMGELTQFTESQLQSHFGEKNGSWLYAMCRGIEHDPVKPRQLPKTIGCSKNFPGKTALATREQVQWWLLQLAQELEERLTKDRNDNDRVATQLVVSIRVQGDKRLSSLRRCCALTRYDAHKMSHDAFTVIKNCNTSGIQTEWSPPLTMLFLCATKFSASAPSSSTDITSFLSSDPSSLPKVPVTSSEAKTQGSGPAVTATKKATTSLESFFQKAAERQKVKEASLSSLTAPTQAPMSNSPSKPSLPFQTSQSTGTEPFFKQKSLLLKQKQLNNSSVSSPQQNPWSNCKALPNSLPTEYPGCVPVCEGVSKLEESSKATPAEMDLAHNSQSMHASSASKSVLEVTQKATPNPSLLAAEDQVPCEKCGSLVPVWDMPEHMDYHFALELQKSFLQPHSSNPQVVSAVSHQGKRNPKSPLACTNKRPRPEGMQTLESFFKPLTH
Sequence of UniProt P10828 (P10828 whole entry, looked up): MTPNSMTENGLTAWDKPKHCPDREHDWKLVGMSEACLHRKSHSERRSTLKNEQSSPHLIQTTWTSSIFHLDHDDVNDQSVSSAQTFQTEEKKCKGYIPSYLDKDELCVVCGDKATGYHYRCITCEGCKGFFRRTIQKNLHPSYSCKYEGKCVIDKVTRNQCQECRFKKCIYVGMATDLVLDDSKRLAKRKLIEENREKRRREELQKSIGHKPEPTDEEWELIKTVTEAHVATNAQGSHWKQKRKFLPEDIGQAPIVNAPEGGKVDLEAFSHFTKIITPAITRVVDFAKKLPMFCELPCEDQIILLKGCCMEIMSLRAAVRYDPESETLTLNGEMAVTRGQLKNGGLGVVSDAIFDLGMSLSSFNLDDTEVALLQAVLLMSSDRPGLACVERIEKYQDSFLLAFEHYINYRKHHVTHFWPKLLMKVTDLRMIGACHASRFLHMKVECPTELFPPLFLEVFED
Sequence of UniProt P19793 (P19793 whole entry, looked up): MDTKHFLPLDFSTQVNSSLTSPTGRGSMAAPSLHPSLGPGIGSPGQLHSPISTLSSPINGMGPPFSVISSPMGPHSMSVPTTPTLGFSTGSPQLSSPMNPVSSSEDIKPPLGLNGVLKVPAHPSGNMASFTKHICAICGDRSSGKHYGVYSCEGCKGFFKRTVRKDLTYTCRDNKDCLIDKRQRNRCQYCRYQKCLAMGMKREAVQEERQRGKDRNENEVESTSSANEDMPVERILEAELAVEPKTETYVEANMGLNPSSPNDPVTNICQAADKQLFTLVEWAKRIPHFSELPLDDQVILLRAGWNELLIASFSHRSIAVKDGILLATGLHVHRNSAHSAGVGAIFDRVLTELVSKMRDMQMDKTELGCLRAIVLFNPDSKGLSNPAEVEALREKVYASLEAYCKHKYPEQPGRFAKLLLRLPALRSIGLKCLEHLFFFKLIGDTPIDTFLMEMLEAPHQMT
Sequence of UniProt P51449 (P51449 whole entry, looked up): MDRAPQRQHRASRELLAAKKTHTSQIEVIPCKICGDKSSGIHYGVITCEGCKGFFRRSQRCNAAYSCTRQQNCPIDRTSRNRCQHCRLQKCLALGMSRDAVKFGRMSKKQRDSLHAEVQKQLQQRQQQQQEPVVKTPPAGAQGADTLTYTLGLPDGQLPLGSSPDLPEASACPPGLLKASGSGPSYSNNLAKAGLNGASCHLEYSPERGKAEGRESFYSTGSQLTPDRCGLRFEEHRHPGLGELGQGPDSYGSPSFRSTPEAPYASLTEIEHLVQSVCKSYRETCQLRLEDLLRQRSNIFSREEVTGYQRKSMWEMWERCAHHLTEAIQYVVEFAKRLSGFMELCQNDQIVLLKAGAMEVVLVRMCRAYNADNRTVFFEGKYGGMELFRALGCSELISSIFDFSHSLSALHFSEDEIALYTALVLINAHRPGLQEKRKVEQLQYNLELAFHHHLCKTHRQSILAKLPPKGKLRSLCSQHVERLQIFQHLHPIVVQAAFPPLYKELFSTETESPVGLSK
Sequence of UniProt P08659 (P08659 whole entry, looked up): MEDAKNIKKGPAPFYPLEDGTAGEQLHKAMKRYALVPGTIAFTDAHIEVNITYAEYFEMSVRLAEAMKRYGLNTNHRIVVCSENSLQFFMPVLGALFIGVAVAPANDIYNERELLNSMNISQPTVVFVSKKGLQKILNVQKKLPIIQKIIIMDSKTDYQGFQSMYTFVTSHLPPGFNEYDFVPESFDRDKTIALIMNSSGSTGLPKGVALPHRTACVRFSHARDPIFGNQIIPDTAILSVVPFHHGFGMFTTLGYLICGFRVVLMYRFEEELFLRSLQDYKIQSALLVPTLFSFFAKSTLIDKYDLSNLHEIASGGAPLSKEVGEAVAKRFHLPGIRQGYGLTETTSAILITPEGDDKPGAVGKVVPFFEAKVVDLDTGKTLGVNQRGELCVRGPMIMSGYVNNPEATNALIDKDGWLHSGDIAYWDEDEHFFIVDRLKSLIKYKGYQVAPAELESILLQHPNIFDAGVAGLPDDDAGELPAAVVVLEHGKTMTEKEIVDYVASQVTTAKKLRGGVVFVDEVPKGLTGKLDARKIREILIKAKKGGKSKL

C[C@H](CCC(=O)O)[C@H]1CC[C@H]2[C@@H]3CC[C@@H]4C[C@H](O)CC[C@]4(C)[C@H]3CC[C@]12C
Potency [1]: inconclusive: 25.1 µM [cytotoxic, partial curve, poor fit] | Potency [2]: inactive and inconclusive: 35.5 µM [fluorescent, side channel, partial curve] | Potency [3]: inconclusive: 44.7 µM [inhibitor, partial curve, poor fit] and inconclusive: 39.8 µM [inhibitor, single point] | Potency [4]: inconclusive: 17.8 µM [side channel, rising, partial curve] | activation [4]: inconclusive: -29.3% | Potency [5]: inconclusive: 50.1 µM [side channel, falling, single point] | Potency [6]: inconclusive: 35.5 µM [side channel, falling, full curve, poor fit] and inconclusive: 31.6 µM [side channel, falling, full curve, poor fit] | Potency [7]: inconclusive: 75 µM [activator, single point] | Potency [8]: inconclusive: 75 µM [inhibitor, single point]

CCOP(=S)(OCC)SCSCC
activity, negative = inhibition [2]: inconclusive: -37.5% | Potency [3]: inactive | max response [9]: inactive: -2.19%

O=C(Nc1ccc(Oc2ccc(Cl)cc2)c(Cl)c1)c1cc(I)cc(I)c1O
Potency [10]: inconclusive: 32.2 µM [inhibitor, partial curve] | Potency [11]: inconclusive: 95.3 µM [inhibitor, single point]

COc1cc([C@@H]2c3cc4c(cc3[C@H](O)[C@H]3COC(=O)[C@H]23)OCO4)cc(OC)c1OC
Potency [12]: active: 0.0224 µM | Potency [13]: inconclusive: 0.0148 µM [activator, full curve] | Potency [14]: inconclusive: 10 µM [inhibitor, partial curve]

COC1=CC=C2[C@H]3Cc4ccc(OC)c5c4[C@@]2(CCN3C)[C@H]1O5
Potency [14]: inconclusive: 44.7 µM [inhibitor, single point] | Potency [15]: inconclusive: 11.2 µM [inhibitor, single point] | Potency [16]: inactive | Potency (CP191): inactive | Potency (CP194): inactive | Potency (CP237): inconclusive: 7.08 µM [inhibitor, single point] | Potency (CP335): inactive | Potency (DFO2036): inactive | Potency (P93_24): inactive | Potency (TAB113): inactive | Potency (W2): inconclusive: 6.42 µM [inhibitor, single point]
